Results taken from US20120263734A1 (THERACLONE SCIENCES, published 2012).

Target: GPCMV gB (glycoprotein B of Guinea Pig CMV strain V545/82) (guinea pig CMV (GPCMV))
Test: cell-based or functional assay

B1: 2M16 human anti-CMV antibody (antibody)
heavy: QVQLVDSGGGMVQPGRSLRLSCSASGLTFSNYGMHWVRQAPGKGLEWVAVISSDGSNEHYADSVKGRFTISRDNFNNMLYLQMNSLRAEDTAVYYSARDGRCPDVNCYSGLIDYWGQGTLVTVSSASTKGPSVFPLAPSSKSTSGGTAALGCLVKDYFPEPVTVSWNSGALTSGVHTFPAVLQSSGLYSLSSVVTVPSSSLGTQTYICNVNHKPSNTKVDKRV[human IgG1 Fc cut from this listing]
light: EIVLTQSPATLSLSPGERATLSCRASQSVGRYLAWYQQKGGQAPRLLIYDASNRATGIPARFSGSGSGTDFTLTIDSLEPEDFAVYYCQQRSNWPPLTFGGGSKVEIKRTVAAPSVFIFPPSDEQLKSGTASVVCLLNNFYPREAKVQWKVDNALQSGNSQESVTEQDSKDSTYSLSSTLTLSKADYEKHKVYACEVTHQGLSSPVTKSFNRGEC
neutralization of GPCMV V545/82 entry into JH4 cells (highest concentration tested, no effect): > 300 µg/mL
